Measurements reported in a compilation of properties of binary mixtures (doi:10.1021/acs.jpcb.7b06452).
The densities may have been worked out from excess volumes.

Assay: xn = mol fraction of the nth substance listed
Details: 101 kPa

CC(=O)[O-].CCCC[P+](CCCC)(CCCC)CCCC + CC(=O)[O-].CCCC[n+]1ccn(C)c1
mass density [kg/m3]
Details | 313.15 K | 323.15 K | 333.15 K | 343.15 K | 353.15 K
x2 = 0 | – | – | 916.4 | 910.4 | 904.5
x2 = 0.5018 | 968 | – | 956.3 | 950.5 | 944.7
x2 = 0.751 | – | 993.1 | 987.2 | 981.3 | 975.5

CCCC[n+]1ccn(C)c1.O=S(=O)([N-]S(=O)(=O)C(F)(F)F)C(F)(F)F + CC(=O)[O-].CCCC[n+]1ccn(C)c1
x2 = 0
Details | mass density [kg/m3]
293.15 K | 1441.2
313.15 K | 1422.1
323.15 K | 1412.6
333.15 K | 1403.2
343.15 K | 1393.9

CC(=O)[O-].CCCC[n+]1ccn(C)c1 + CCCC[n+]1ccn(C)c1.O=S(=O)([N-]S(=O)(=O)C(F)(F)F)C(F)(F)F
mass density [kg/m3]
Details | 293.15 K | 298.15 K | 303.15 K | 313.15 K | 323.15 K | 333.15 K | 343.15 K | 353.15 K
x1 = 0.2512 | 1370.3 | 1365.8 | 1361.3 | 1352.3 | 1343.5 | 1334.6 | 1325.9 | 1317.2
x1 = 0.5001 | 1286.2 | 1282.1 | – | 1270 | 1262 | 1254 | 1246.1 | 1238.2
x1 = 0.7497 | 1183.7 | 1180.1 | – | 1169.2 | – | 1154.9 | 1147.9 | 1140.9
